Measured values published in PubChem BioAssay AID995 (National Center for Advancing Translational Sciences (NCATS), 2007).
The whole screen tested about 72,000 compounds, of which about 710 (0.99%) were called active. The inconclusive results got no clear call from the source; some entries with a clear call stand among them for comparison. Calls follow the shape of the dose curve; as a rule, active = well fitted inhibition curve with a large enough effect; inconclusive = small, poorly fitted or top-dose-only effect; inactive = no such curve, though single readings can be large or run the other way. No potency is given beside an inconclusive call; the fits are too rough.

Test: qHTS Assay for Inhibitors of the ERK Signaling Pathway using a Homogeneous Screening Assay; also: nearly all actives have a fitted effect of over 55% in size
Conditions: HEK293-V1b, vasopressin-stimulated pERK AlphaScreen; activity, negative = inhibition: at 57.5 µM (top of the series) unless noted
How it was run: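 HEK293 cells stably expressing V1b receptor, seeded overnight in 1% FBS, were treated with compounds for 30 min at 37C, then stimulated 5 min with 25 nM vasopressin; phospho-ERK read by AlphaScreen SureFire after lysis.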
% is scaled to controls: 0 for no effect and ±100 for the full control effect; potency is read from the fitted curve at half-maximal effect; tags tell the direction and shape of the fitted curve.

Row | SMILES | Potency | activity, negative = inhibition
1 | COC(=O)c1[nH]c2ccc(C)cc2c1NC(=O)C1=COCCO1 | inconclusive [inhibitor, partial curve] | 
2 | Cn1c(CN2CCOCC2)nc2cc(NC(=O)c3ccccc3Cl)ccc21 | inconclusive [inhibitor, single point] | 
3 | COc1ccc(C(C)=O)cc1COC(=O)c1cnc(C)cn1 |  | inactive: -16.3%
4 | CCOC(=O)N1CCN(C(=O)CN(c2cccc(C)c2)S(=O)(=O)c2ccc(C)cc2)CC1 | inconclusive [inhibitor, single point] | 
5 | NC(=O)CSc1nc2ccccc2n1-c1ccccc1 | inconclusive [inhibitor, partial curve] | 
6 | CCOC(=O)N1CCC(N2C(=O)c3ccc(C(=O)NCc4ccco4)cc3C2=O)CC1 | inconclusive [inhibitor, single point] | 
7 | O=C(c1cnccn1)N1CCC2(CC1)CN(c1cccc(-c3ccccc3)c1)C2 |  | inactive: -20.7%
8 | O=C(CSc1nnc(-c2c[nH]c3ccccc23)n1-c1ccc(F)cc1)NCc1ccco1 | inconclusive [inhibitor, partial curve] | 
9 | COc1ccc(NC(=O)CN2CCN(CC(=O)Nc3ccccc3Cl)CC2)cc1Cl |  | inactive: -7.02%
10 | COc1ccc(-n2c(Cc3cccn3C)nnc2SCC(=O)Nc2ccccc2OC)cc1 | inconclusive [inhibitor, partial curve] | 
11 | Cc1ccc(-c2nnn(CC(=O)N(c3ccccc3)C(C(=O)NC3CCCC3)c3ccco3)n2)o1 (stereo unspecified) |  | inactive: -1.5%
12 | COc1cc(C(=O)Nc2cc(-c3ccccc3)[nH]n2)cc(OC)c1OC | inconclusive [inhibitor, partial curve] | 
13 | CCc1ccc(C2C(C#N)=C(N)SC(N)=C2C#N)s1 | inconclusive [inhibitor, partial curve, poor fit] | 
14 | COC(=O)c1ccccc1S(=O)(=O)N(Cc1cc2cc3c(cc2[nH]c1=O)OCO3)C1CCCCC1 | inconclusive [inhibitor, single point] | 
15 | CCCOC(=O)c1ccc(OCC(O)CN2C(=O)NC(C)(C)C2=O)cc1 (stereo unspecified) | inconclusive [inhibitor, full curve] | 
16 | O=c1c(-c2cc(F)cc(F)c2)nc2cncnc2n1Cc1ccccc1 | inconclusive [inhibitor, full curve] | 
17 | CC(C)NC(=O)NC1C2CC3CC(C2)CC1C3 (stereo unspecified) |  | inactive: -16.9%
18 | COc1cc2c(C(=O)NCCCN3CCN(c4cccc(Cl)c4)CC3)cn(C)c(=O)c2cc1OC |  | inactive: 7.77%
19 | O=C(CSc1ccc(-c2nc3ccccc3[nH]2)cn1)N1CCN(C(=O)c2ccco2)CC1 | inconclusive [inhibitor, single point] | 
20 | COc1ccc2nc(C)cc(Nc3ccc(N4CCOCC4)cc3)c2c1 | inconclusive [inhibitor, partial curve] | 
21 | COc1ccc(C2CC(=O)N3CN(Cc4ccco4)CSC3=C2C#N)cc1 (stereo unspecified) |  | inactive: -14.2%
22 | CCCOC(=O)c1[nH]c2c(c1C)C(=O)CC(c1cc(OC)c(OC)c(OC)c1)C2 (stereo unspecified) | active: 25.1 µM | 
23 | O=S(=O)(c1ccc(F)cc1)c1nc(-c2ccc(F)cc2)oc1NCCN1CCOCC1 | inconclusive [inhibitor, partial curve] | 

Row | SMILES | Potency | activity, negative = inhibition
24 | COc1cc(S(=O)(=O)NC2CCCCC2)ccc1Cl |  | inactive: -3.5%
25 | COc1ccc(-c2cnnc(CCCn3ccnc3-c3ccccc3)n2)cc1 |  | inactive: 12.4% [at 11.5 µM]
26 | COc1ccccc1-c1nnc(SCC(=O)Nc2nc(-c3ccccc3)cs2)n1C | inconclusive [inhibitor, single point] | 
27 | COc1ccc(-c2cc(=O)c3ccccc3s2)cc1 | active: 12.6 µM | 
28 | c1cncc(-c2nccc(-n3ccnc3)n2)c1 | inconclusive [inhibitor, partial curve] | 
29 | CC(=O)N1CCC2(CC1)CCN(c1ccc(-c3ccccc3)cc1)CC2 | inconclusive [inhibitor, single point] | 
30 | Cc1ccc(OCC(=O)N(Cc2ccc(N(C)C)cc2)C2CCS(=O)(=O)C2)cc1 (stereo unspecified) | inconclusive [inhibitor, partial curve] | 
31 | COc1cccc(-c2nc3ccc(O)cc3c(=O)o2)c1 |  | inactive: -24.2%
32 | O=C(CSc1nc2ccsc2c(=O)n1NC(=O)c1ccccc1)NCc1ccco1 | inconclusive [inhibitor, single point] | 
33 | Nc1ncn(C2OC(CO)C(O)C2O)c(=O)n1 (stereo unspecified) |  | inactive: 15.1%
34 | Cc1cc(=O)cc(C)n1-c1ccccc1N1CCOCC1 |  | inconclusive: -34.3% [inhibitor]
35 | Cc1cc(O)c(NC(=O)c2ccc(Br)o2)cc1C |  | inactive: -12.6%
36 | O=C(Cc1ccccc1F)Nc1nc(-c2cccs2)cs1 | inconclusive [inhibitor, partial curve] | 
37 | COc1ccc(NC(=O)N2CCCC3(CCN(C(=O)c4cccc(F)c4)CC3)C2)cc1 |  | inactive: 2.43%
38 | Cc1ccnc(SCCn2c(N3CCC(C)CC3)nc3c2c(=O)n(C)c(=O)n3C)n1 | inconclusive [inhibitor, full curve, poor fit] | 
39 | NS(=O)(=O)c1cc(C(=O)O)c(O)c2ccccc12 |  | inactive: -8.47% [at 11.5 µM]
40 | CNc1nc(NC)nc(-n2c(C(F)(F)F)nc3ccccc32)n1 | inconclusive [inhibitor, partial curve] | 
41 | CCOC(=O)c1c(C)c(C(=O)Nc2cc(OC)ccc2OC)c(C)n1CC | inconclusive [inhibitor, partial curve] | 
42 | CCOC(=O)Nc1cccc(NC(=O)c2cc(OC)cc(OC)c2)c1 | inconclusive [inhibitor, full curve] | 
43 | CC(=O)N1CC=C2C(C#N)=C(N)C(C#N)(C#N)C(CCc3ccccc3)C2C1 (stereo unspecified) |  | inactive: -10.8%
44 | c1ccc(C(Cc2nc(-c3cccnc3)no2)c2ccccc2)cc1 | inconclusive [inhibitor, single point] | 
45 | O=c1c(-c2cc(F)cc(F)c2)nc2cnc(Nc3ccccc3)nc2n1C[C@H]1CCCO1 |  | inactive: 2.21%
46 | Cc1occc1-c1nnc(SCC(=O)NCc2ccc3c(c2)OCO3)n1CC(C)C |  | inactive: -6.39%
